The record followed here is PubChem BioAssay AID488969 (Vanderbilt High Throughput Screening Facility, 2010).

The full ranking holds about 110,000 compounds; the median of “z-score” is about -0.1, and the highest 2% start at about 2. The list shows a part of the results.

The target of the assay is Metabotropic glutamate receptor 8 (Rattus norvegicus) (UniProt P70579). Kind of assay: rat mGluR8 modulators via GIRK flux, primary screen, cell-based, thallium flux, HTS (AID 488969). To be noted: HEK293 rat mGluR8, GIRK (G protein-gated inwardly rectifying potassium channel) thallium flux, FluoZin2; at 10 µM; stronger effect = higher value; submaximal glutamate (EC20) added with thallium.
Chain of UniProt P70579 (P70579 whole entry, looked up): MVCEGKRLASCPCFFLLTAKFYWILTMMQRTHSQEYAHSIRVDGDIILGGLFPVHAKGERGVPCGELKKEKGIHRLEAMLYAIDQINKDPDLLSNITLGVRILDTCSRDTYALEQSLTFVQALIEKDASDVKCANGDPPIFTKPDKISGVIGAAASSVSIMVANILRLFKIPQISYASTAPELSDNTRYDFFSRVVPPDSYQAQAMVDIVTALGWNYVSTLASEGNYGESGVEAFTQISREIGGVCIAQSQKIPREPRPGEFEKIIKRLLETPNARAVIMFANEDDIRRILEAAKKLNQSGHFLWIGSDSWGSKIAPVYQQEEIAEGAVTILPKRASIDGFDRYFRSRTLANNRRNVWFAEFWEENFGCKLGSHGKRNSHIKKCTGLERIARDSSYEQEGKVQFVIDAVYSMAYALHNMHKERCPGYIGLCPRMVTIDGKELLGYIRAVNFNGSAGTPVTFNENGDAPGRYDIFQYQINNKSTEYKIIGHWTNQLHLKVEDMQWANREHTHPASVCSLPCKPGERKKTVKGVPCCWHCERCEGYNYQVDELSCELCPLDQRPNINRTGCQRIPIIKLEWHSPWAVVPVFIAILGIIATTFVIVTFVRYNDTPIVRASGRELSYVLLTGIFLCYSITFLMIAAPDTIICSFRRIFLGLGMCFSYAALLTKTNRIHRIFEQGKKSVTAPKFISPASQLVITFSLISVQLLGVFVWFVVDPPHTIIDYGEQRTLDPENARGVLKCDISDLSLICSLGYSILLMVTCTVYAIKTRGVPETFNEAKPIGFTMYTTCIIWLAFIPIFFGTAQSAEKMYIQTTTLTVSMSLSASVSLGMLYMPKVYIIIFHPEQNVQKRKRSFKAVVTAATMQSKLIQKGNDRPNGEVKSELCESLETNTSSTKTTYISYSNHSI
Turning to `C=CCc1cc(C=O)cc(OCC)c1OCc1ccc(Cl)cc1`, the z-score was 0.504.

As for `O=C(O)c1ccc2c(c1)-c1nc3ccccc3n1C2=O`, the z-score was -0.383. In the case of `COc1ccc2nc(SCCOC(=O)Nc3ccc(Cl)cc3)nc(C)c2c1`, the z-score was found to be 0.0957. The value for `Cc1c(C(=O)OCc2ccccc2)nnn1-c1nonc1N` was 0.544; that for `COc1ncnc2c1oc1nc(CC(C)C)c3c(c12)CC(C)(C)OC3` was -0.0934; that for `COc1cc2[nH]c(=S)n(CCCN3CCOCC3)c(=O)c2cc1OC` was 0.0597. The compound `CC(C)CC(=O)NC(Nc1ccccc1F)C(Cl)(Cl)Cl` (configuration not stated) gave a z-score of 0.198. The value for `O=C(Nc1ccccc1Sc1ccccc1)c1ccccc1F` was 0.0431; that for `CCOC(=O)N1CCN(Cc2nc(N)nc(Nc3ccc(Oc4ccccc4)cc3)n2)CC1` was -0.169.

The compound `COc1ccc(S(=O)(=O)Nc2cc(C)c(O)cc2C(C)C)cc1` registered a z-score of -0.264.

As to `CSc1ccc(C2C(C#N)=C(N)Oc3c2ccc(=O)c2c(C)oc(C)c32)cc1` (configuration not stated), the z-score was -0.0831.

Consider `CCSC1(SCC)N=C(N)C2(C#N)C(c3ccccc3)NC(C)=C(C)C12C#N` (configuration not stated), for which the z-score came out at 0.276.

Compound `O=S(=O)(c1cccs1)N1CCCc2ccccc21` came in with a z-score of 0.48. The value for `Cc1nc(NC(=S)NC(=O)COc2ccccc2Cl)ccc1Br` was 0.851.

`CCCc1cc(C(=O)NCC(C)C)no1` yielded a z-score of -0.432.

The compound `Cc1ccc(N(CCC(=O)Nc2nnc(C3CC3)s2)S(=O)(=O)c2ccccc2)cc1` returned a z-score of -0.204. The value for `Nc1nncn1C(=O)CCCOc1ccccc1` was 0.683; that for `COc1ccc(C(=O)NC(=S)Nc2ccc(N3CCOCC3)c(Cl)c2)cc1[N+](=O)[O-]` was -0.0588; that for `Cc1cccc(NC(=O)c2cnc3n(c2=O)CCS3)c1` was 0.0446. The value for `CCC(=O)Nc1ccc(Cl)c(NC(=S)NC(=O)COc2ccccc2)c1` was -0.169; that for `O=C(NC(Cc1ccccc1)C(=O)O)/C(=C/c1ccco1)NC(=O)c1cccc(Br)c1` (configuration not stated) was 0.198. The value for `O=S(=O)(c1cccs1)N1CCN(CC(O)COc2cccc(Br)c2)CC1` (configuration not stated) was -0.105. `O=C(NCC1CC1)c1ccc(Nc2nc3ccc(Br)cc3[nH]2)cc1` returned a z-score of -0.393.

For the compound `CCC(C)(C)n1nnnc1C(c1ccccn1)N1CCCCC1` (configuration not stated), the z-score came to 0.549. `CCn1c(C(C)NC(=O)Cc2ccccc2)nc2ccccc21` (configuration not stated) came in with a z-score of -0.345.

As for `COc1cccc(C(=O)OC2CCCN(C)C2)c1` (configuration not stated), the z-score is -0.125. With `COc1cccc(OC)c1OCCN1CCN(C(=O)c2ccco2)CC1`, the z-score turned out to be 0.173. `NC(=O)/C=C\c1cn(-c2ccccc2)nc1-c1ccc2c(c1)OCCO2`: the z-score was found to be 2.14. `O=C(Nc1ccc2oc(-c3cccnc3)nc2c1)c1cc2ccccc2o1`: the z-score came out at 0.228. The value for `COc1ccc(OC)c(NC(=O)CC2SC(=Nc3ccccc3)N(CCc3ccccn3)C2=O)c1` (configuration not stated) was -0.173; that for `COc1ccc(C)cc1NC(=O)c1nnn(CCc2ccccc2)c1N` was -0.27; that for `C=C(C)COc1ccc2oc(C)c(C(=O)OCCOC)c2c1` was -0.598. The value for `O=C1C2CC=C(Cl)CC2C(=O)N1CCN1CCOCC1` (configuration not stated) was -0.129; that for `CC1(C)CC(=O)C(C=NCCN2CCN(C(=O)c3ccc(Br)cc3)CC2)=C(O)C1` was -0.23. The value for `COCCOC(=O)C1=C(C)N=c2s/c(=C\c3cccs3)c(=O)n2C1c1cccs1` (configuration not stated) was -0.232; that for `CCN1CCN(C(c2cccs2)C(C)NC(=O)c2ccco2)CC1` (configuration not stated) was 0.758.

`COc1cccc(C(=O)N(Cc2ccccc2)Cc2cc3cc4c(cc3[nH]c2=O)OCCO4)c1` showed a z-score of 0.295.

Compound `CCSc1nnc(NC(=O)c2cccnc2)s1` gave a z-score of -0.0157. For the compound `O=C(NCCCN1CCOCC1)c1cc(-c2ccc(F)cc2)on1`, the z-score is -0.126. Under `O=C(Nc1cccc2cccnc12)C1CCCC1` stands -0.134.

With `Cc1nc(SCC(=O)N2c3ccccc3Sc3ccccc32)n[nH]1`, the z-score was -0.0789.

As for `COC(=O)CCN1CCC(C(N)=O)CC1`, the z-score is -0.109.

In the case of `CCCCCCC(=O)N(O)C1CC(=O)N(c2ccc(C)cc2)C1=O` (configuration not stated), the z-score came out at 0.013. The value for `C=CCn1c(SCC(=O)Nc2ccccc2)nc2scc(-c3cccs3)c2c1=O` was 0.00798; that for `CCc1cccc(CC)c1NC(=O)COn1nnc2ccc(C(F)(F)F)cc21` was -0.14. The value for `Cc1cc(C(=O)COC(=O)C2COc3ccccc3O2)c(C)n1CC1CCCO1` (configuration not stated) was -1.82; that for `Cc1ccc(C)c2[nH]c(=O)c(CN(CCN3CCCC3)C(=O)Nc3cccc(Cl)c3)cc12` was 0.666. Under `Cc1nnc(SCC(=O)Nc2ccc3c(c2)COC3=O)n1-c1ccccc1` stands 0.767; under `CCc1ccc(C=NC23CN4CN(CN(C4)C2)C3)s1`, -0.307. Take `COc1ccc(S(=O)(=O)N2CCC(C(=O)NCCc3ccc4c(c3)OCO4)CC2)cc1`: the z-score is 0.188. On to `C/C(N)=C(/C#N)C(=O)CSc1n[nH]c(-c2ccccc2Br)n1`, for which the z-score was -0.0674. Under `Cc1nn(CC(O)c2ccccc2)c(C)c1Br` (configuration not stated) stands -0.271. `O=C1CC(c2ccc3c(c2)OCO3)C2=C(CCCC2=O)N1` (configuration not stated): the z-score was -0.2. The value for `CCOC(=O)C(Oc1ccc2c(-c3ccccc3)cc(=O)oc2c1C)c1ccccc1` (configuration not stated) was -0.0738; that for `Cc1cc(SCC(=O)Nc2ncc(Cl)cc2Cl)nc2ccccc12` was -0.395.

Compound `Clc1ccc(Nc2nc(-c3ccncc3)cs2)cc1` had a z-score of -0.304.

`CCn1c(SCC(=O)Nc2ccc(C(C)=O)cc2)nc2ccccc21` had a z-score of 0.352. Take `C/C(=N\N=C1\NC(=O)CC(C(=O)O)S1)c1ccc(F)cc1` (configuration not stated): the z-score was -0.169.

The compound `CCN(C(=O)c1ccco1)c1nnc(-c2ccc(OC)cc2)s1` had a z-score of -0.125. `N#Cc1cc(C(=O)c2cc(Cl)ccc2O)cn(-c2ccccc2)c1=O`: the z-score was -0.35. Under `Cc1cc(C)nc(SC2CCOC2=O)n1` (configuration not stated) stands -0.0163; under `CCC(=O)c1ccc(N2CCN(C(=O)c3cc([N+](=O)[O-])ccc3N3CCN(C)CC3)CC2)c(F)c1`, 1.28. For `Brc1cc(Br)c2nc(-c3ccc(N4CCOCC4)cc3)ccc2c1`, the z-score was -0.0727. The value for `c1ccc2c(N3CCCCC3)nnc(N3CCCCC3)c2c1` was -0.359; that for `Cc1ccc2c(c1)c(C)c(C)n2CC(O)Cn1nnc2ccccc21` (configuration not stated) was 0.112.

Compound `Cc1cc2ncn(CC(O)COC3CCCCC3)c2cc1C` (configuration not stated) registered a z-score of -0.0556. Under `CCCCCCc1cc2cc(S(=O)(=O)c3ccc(F)cc3)c(=O)oc2cc1O` stands -0.0939; under `O=C(Nc1ccc(Br)cc1)c1ccc(N2C(=O)C3CC=CCC3C2=O)cc1` (configuration not stated), 0.106. The value for `FC(F)(F)c1cnc(Oc2ccccc2-c2nnco2)c(Cl)c1` was 0.892; that for `Cc1ccc(NC(=O)/C=C/C(=O)O)c([N+](=O)[O-])c1` was 1.28. The value for `Cc1cc(C)c(S(=O)(=O)NCC(=O)O)cc1C` was -0.286; that for `CC(C)(C)n1nnnc1CN(Cc1ccc(F)cc1)Cc1ccco1` was -0.212; that for `Cc1ccc(S(=O)(=O)c2c(N)n(Cc3ccco3)c3nc4ccccc4nc23)cc1C` was -0.618. The compound `COc1ccccc1NC(=O)C(=O)Nc1ccccn1` registered a z-score of 0.41. The value for `C/C(=N\S(=O)(=O)c1ccc(C)cc1)Nc1cc(C(C)C)c(O)cc1C` was 0.603. Under `CCCCn1nnc(NC(=O)c2ccc(-c3ccccc3)cc2)n1` stands -0.666; under `COc1ccc(-n2ncc3c(=O)n(CC(=O)N4c5ccccc5CC4C)cnc32)cc1` (configuration not stated), 0.214.

Turning to `Cc1cccc(OCC(=O)O/N=C(\N)c2ccccn2)c1C`, the z-score is -0.113.

Take `CCOC(=O)c1c(C)nc2sc(C(N)=O)c(N)c2c1-c1ccc(OC)cc1`: the z-score is -1.17. Under `CCOC(=O)Cc1ccc2sc(-c3ccccc3)nc2c1` stands -0.137. The value for `O=C(Nc1nccs1)c1ccc(-c2ccccc2Cl)o1` was -0.107; that for `C=CCc1ccccc1OCCn1ccnc1` was 0.68; that for `COc1ccccc1NC(=O)[C@H](COCc1ccccc1)NC(=O)OC(C)(C)C` was 0.143. As to `CC1(C)CC(=O)C2=C(C1)N(CCN1CCOCC1)C1=C(C(=O)CC(C)(C)C1)C2c1cccc(F)c1`, the z-score is -0.358. Under `CCn1c(O)c2ccc(C(=O)N=NC(=O)c3cccnc3)cc2c1O` stands -0.168; under `COC(Cc1nnc(SC)n1-c1ccc(Cl)cc1)OC`, 0.0781. The value for `COc1ccc(-c2cc(C(=O)N/N=C/c3sccc3C)c3ccccc3n2)c(OC)c1` was 0.0432; that for `Cc1cccc(CC2CC(=O)N(c3ncccn3)C2=O)c1` (configuration not stated) was -0.533.

For the compound `Cc1ccccc1C1C(C#N)=C2NC(=O)c3c(sc4c3CCCCC4)N2C2=C1C(=O)CC(C)(C)C2` (configuration not stated), the z-score came out at 1.56. The value for `COC(=O)c1ccc(Cn2c(O)c(N=O)c3ccccc32)o1` was -0.863.

`COCCn1nnnc1C(c1ccc(OC)c(OC)c1)N1CCN(c2nc3ccccc3s2)CC1` (configuration not stated) showed a z-score of -0.198.

`Cc1noc(C)c1S(=O)(=O)NCc1ccc2c(c1)OCO2` came in with a z-score of -0.235. The value for `Cc1nnc(SCC(=O)NC2CC2)n1CCc1ccccc1` was -0.0997.

In the case of `COc1ccc(NS(=O)(=O)c2ccc(C)c(NC(=O)NC3CCCCC3)c2)cc1`, the z-score was -0.211. Regarding `CCN(CC)c1ccc2c(Cl)cc(=O)oc2c1`, the z-score is -0.424. `N#CCCS(=O)(=O)c1nnnn1-c1ccccc1` showed a z-score of 0.0771.

On to `N#CCN1CCN(CC(=O)Nc2ccc(OCc3ccccc3)cc2)CC1`, for which the z-score is -0.0615. Under `Cc1cc2cc(CNC(=O)C3CC3)ccc2n1C` stands -0.0748; under `CC(C)C(=O)c1cc2c(cc1NC(=O)c1cccs1)OCCO2`, 0.243.

Consider `COc1cccc(C2[C@H](C)C3(CCN2C)OCCO3)c1` (some centres not stated), for which the z-score is -0.111.

`COC(=O)c1ccccc1NC(=O)Oc1ccc(C(C)C)cc1`: the z-score was found to be 0.456. For the compound `O=C(CSc1ncnc2c1nnn2Cc1ccccc1F)N1CCN(c2ccccc2)CC1`, the z-score is -0.298.

For `O=C(CCC1CCCCC1)Nc1ccccc1-c1ccccc1`, the z-score was found to be 0.0438. In the case of `O=C(Nc1ccccc1SCC1CSc2nc3ccccc3c(=O)n21)c1ccccc1Cl` (configuration not stated), the z-score was 0.159.

In the case of `O=C(CCN1C(=O)c2ccccc2C1=O)NCCN1CCOCC1`, the z-score came out at 0.325. `CCOC(=O)c1cc2c(C)n(-c3ccc(N(C)C)cc3)c(C)c2cc(C(=O)OCC)c1=O` registered a z-score of -0.953. For `COc1ccc(C(=O)OCC(=O)NCc2ccco2)cc1S(=O)(=O)N1CCN(c2cccc(Cl)c2)CC1`, the z-score is -0.853. The value for `CCOC(=O)Cc1csc(NC(=O)c2ccc(Br)o2)n1` was 0.017; that for `CCCCc1ccc(NC(=O)CSCc2cc(=O)[nH][nH]2)cc1` was 0.0665.

On to `Cn1c(Oc2ccc(Cl)cc2)c(C=O)c2ccccc21`, for which the z-score was -0.356. Under `Nn1c(SCC(=O)N2CCCc3ccccc32)nnc1-c1ccccc1` stands -0.699; under `COc1ccc(OC)c(S(=O)(=O)NC2CCN(Cc3ccccc3)CC2)c1`, -0.569.
